# The BET-seq Pho4 binding data (Le et al. 2018)
# This is one part of the list. The energies were worked out here from pooled read counts, against the library average; single values are noisy.
# Biological target: T1, Pho4 (S. cerevisiae) (UniProt P07270)
# T1 sequence: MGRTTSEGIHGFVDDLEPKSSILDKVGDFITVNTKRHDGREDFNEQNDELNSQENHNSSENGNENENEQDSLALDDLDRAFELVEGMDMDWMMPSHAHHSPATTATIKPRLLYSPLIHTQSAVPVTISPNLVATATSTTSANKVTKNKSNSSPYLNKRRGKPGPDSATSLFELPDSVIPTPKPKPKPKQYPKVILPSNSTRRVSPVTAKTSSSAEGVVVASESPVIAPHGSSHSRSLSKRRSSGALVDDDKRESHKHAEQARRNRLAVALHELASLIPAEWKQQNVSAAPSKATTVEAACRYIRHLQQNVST
# Assay: relative binding free energy (BET-seq); higher = weaker binding
# Details: reference: library average
row,Sequence,relative binding free energy
1,GTTTGCACGTGAGAAT,0.32 kcal/mol
2,CGTAACACGTGTTGTT,0.03 kcal/mol
3,GGAAGCACGTGTATGG,-0.13 kcal/mol
4,GAATACACGTGGTTAG,0.05 kcal/mol
5,AGCATCACGTGGTATG,0.04 kcal/mol
6,TGTCGCACGTGTATGT,-0.02 kcal/mol
7,CATTGCACGTGTATAT,0.04 kcal/mol
8,ACGTTCACGTGGCTGT,0.21 kcal/mol
9,TCATACACGTGGGAGG,-0.08 kcal/mol
10,CTAGTCACGTGGGTAA,0 kcal/mol
11,TCTCGCACGTGTGGGA,0 kcal/mol
12,TGTGGCACGTGAATGA,0.06 kcal/mol
13,CGGGGCACGTGAGCGT,0 kcal/mol
14,TTGTACACGTGGGGTC,-0.06 kcal/mol
15,AGGCTCACGTGTGAGT,0.35 kcal/mol
16,TGGTTCACGTGCTAAG,0.3 kcal/mol
17,CTTTTCACGTGTAATG,0.26 kcal/mol
18,GGGGGCACGTGTCTGA,-0.1 kcal/mol
19,AATGTCACGTGTCAGT,0.03 kcal/mol
20,TAGAGCACGTGTGGCA,-0.06 kcal/mol
21,TTTGCCACGTGGCAGT,-0.15 kcal/mol
22,AAGGACACGTGTTTTA,0.15 kcal/mol
23,TGGTGCACGTGATTCG,0.01 kcal/mol
24,TGGGGCACGTGTGGAA,0.05 kcal/mol
25,TAAGGCACGTGCGGAT,-0.13 kcal/mol
26,AGTTTCACGTGAAGTT,0.49 kcal/mol

row,Sequence,relative binding free energy
1,TTGATCACGTGTGCGT,0.1 kcal/mol
2,ATGGCCACGTGAGGGT,0.14 kcal/mol
3,TCGTACACGTGCTTGG,0.13 kcal/mol
4,GGTGACACGTGGGTCC,0.02 kcal/mol
5,TACGGCACGTGGGATT,0.04 kcal/mol
6,ACGGGCACGTGAGTGG,0.07 kcal/mol
7,TGGTTCACGTGTAAGA,0.37 kcal/mol
8,TTCGGCACGTGTCATT,0.01 kcal/mol
9,AGGCTCACGTGTAGCG,0.35 kcal/mol
10,AATTACACGTGGGTGC,0.01 kcal/mol
11,GTTGGCACGTGGAGAA,-0.09 kcal/mol
12,CTTTTCACGTGCTGTG,0.35 kcal/mol
13,ATAGACACGTGGTGTG,-0.12 kcal/mol
14,TATTTCACGTGTGTGA,0.23 kcal/mol
15,GGGAGCACGTGTGATT,-0.04 kcal/mol
16,AAGGTCACGTGGAGTA,0 kcal/mol
17,TGTTCCACGTGCTGGG,-0.03 kcal/mol
18,AGTGGCACGTGGATAT,-0.23 kcal/mol
19,TGAGGCACGTGACGTT,0.03 kcal/mol
20,GAGTACACGTGGGTTT,-0.04 kcal/mol
21,AGATTCACGTGAATAT,0.4 kcal/mol
22,GTTCTCACGTGGGTTC,0.19 kcal/mol
23,ATGTCCACGTGGGTAG,-0.03 kcal/mol
24,CGTGGCACGTGTTGAG,-0.04 kcal/mol
25,GTTTCCACGTGTTGGG,0.19 kcal/mol
26,ATGTGCACGTGGGTAC,-0.22 kcal/mol

row,Sequence,relative binding free energy
1,ATCGGCACGTGGTAAG,-0.11 kcal/mol
2,TTTTGCACGTGCAGTG,0.03 kcal/mol
3,CTGTGCACGTGCTGGG,-0.07 kcal/mol
4,GGCTGCACGTGATCGG,0.24 kcal/mol
5,CAGGTCACGTGTTGCG,0.17 kcal/mol
6,GCCGGCACGTGTGGTG,-0.02 kcal/mol
7,ATTTTCACGTGGAGTT,0.28 kcal/mol
8,AAAAGCACGTGGGTGG,-0.23 kcal/mol
9,ATTAGCACGTGAAGTG,0.32 kcal/mol
10,TGGTTCACGTGTCGCT,0.22 kcal/mol
11,TTAAGCACGTGTGTAG,-0.1 kcal/mol
12,ACGAGCACGTGAGTGT,0.12 kcal/mol
13,GGGGGCACGTGTTGTC,-0.07 kcal/mol
14,TTCGGCACGTGTTTGC,-0.06 kcal/mol
15,GGTGGCACGTGCGGAG,-0.07 kcal/mol
16,GGCAGCACGTGTGTAA,0.12 kcal/mol
17,TTGGGCACGTGGGGGT,-0.14 kcal/mol
18,ACAAGCACGTGGGTGG,-0.2 kcal/mol
19,GCTGTCACGTGAGAGT,0.37 kcal/mol
20,GGGCTCACGTGTAAGT,0.19 kcal/mol
21,TGGTACACGTGGGTTC,0.01 kcal/mol
22,ATTAGCACGTGGAGGA,-0.04 kcal/mol
23,TGTGGCACGTGTCTCG,-0.15 kcal/mol
24,GGTAGCACGTGTGTAA,-0.05 kcal/mol
25,GGGATCACGTGTGATA,0.32 kcal/mol
26,TGGTTCACGTGATCGA,0.33 kcal/mol

row,Sequence,relative binding free energy
1,GTTATCACGTGGGGAC,0.04 kcal/mol
2,TAGTACACGTGTATAA,0.14 kcal/mol
3,GTGATCACGTGCCGGG,0.06 kcal/mol
4,GTAGTCACGTGTTATT,0.19 kcal/mol
5,TGTCACACGTGAAGTG,0.31 kcal/mol
6,AAGGGCACGTGGCTAG,-0.21 kcal/mol
7,ACGTTCACGTGTCGGG,0.19 kcal/mol
8,ATTCTCACGTGTGGAT,0.3 kcal/mol
9,GATTTCACGTGTAGGA,0.4 kcal/mol
10,TAAGTCACGTGTCAGT,0.15 kcal/mol
11,GCTTGCACGTGTGTTC,0.19 kcal/mol
12,CTAGTCACGTGAGGGA,0.2 kcal/mol
13,GACTTCACGTGAAGGG,0.35 kcal/mol
14,TATTCCACGTGGTGAT,-0.02 kcal/mol
15,GTAAGCACGTGTTAAG,0.06 kcal/mol
16,GTGTACACGTGGTCTG,-0.14 kcal/mol
17,GGTGCCACGTGCTTGT,-0.15 kcal/mol
18,TAGAGCACGTGTTTCA,0.04 kcal/mol
19,GGCTGCACGTGTGGGA,0.07 kcal/mol
20,AAAGTCACGTGAATGG,0.26 kcal/mol
21,AGTGTCACGTGTCTAA,-0.02 kcal/mol
22,ACAGACACGTGTAGGT,0.07 kcal/mol
23,CGGTTCACGTGGGCGA,0.06 kcal/mol
24,TAAGACACGTGAAGGG,0.22 kcal/mol
25,TGGTGCACGTGGACTG,-0.03 kcal/mol
26,CTGGTCACGTGATGAG,0.07 kcal/mol

row,Sequence,relative binding free energy
1,TTATTCACGTGGTGAA,0.17 kcal/mol
2,CCGGACACGTGTGGTG,0.09 kcal/mol
3,TTAGTCACGTGTGATC,0.24 kcal/mol
4,AGCGTCACGTGGGTGG,-0.05 kcal/mol
5,GTTGTCACGTGGGGTA,0.02 kcal/mol
6,CGTGTCACGTGCGGGG,0 kcal/mol
7,ATTTACACGTGTACTT,0.06 kcal/mol
8,CTTGTCACGTGTGGGA,0.15 kcal/mol
9,ATGGGCACGTGTAAGC,0.12 kcal/mol
10,ATTGGCACGTGCAGCG,-0.13 kcal/mol
11,AAAGGCACGTGGGTAA,-0.24 kcal/mol
12,CTGAGCACGTGGTATT,-0.18 kcal/mol
13,TGTGACACGTGCGGTA,0.08 kcal/mol
14,TGTCGCACGTGGGCTA,-0.21 kcal/mol
15,ATTATCACGTGTGTTG,0.17 kcal/mol
16,TCAGTCACGTGTTTAG,0.08 kcal/mol
17,GGGTGCACGTGACTCG,0.18 kcal/mol
18,AATATCACGTGATGGG,0.21 kcal/mol
19,TTAACCACGTGGCTGG,0 kcal/mol
20,TATTGCACGTGTGGGC,0.03 kcal/mol
21,TGTGTCACGTGACTCT,0.23 kcal/mol
22,GTTATCACGTGCGTTG,0.19 kcal/mol
23,ATATACACGTGAGGGC,0.25 kcal/mol
24,GGAGTCACGTGTTCGG,0.17 kcal/mol
25,ATGCGCACGTGGTGGC,-0.21 kcal/mol
26,ATAGGCACGTGCGCTG,-0.12 kcal/mol

row,Sequence,relative binding free energy
1,GTGATCACGTGTTTGA,0.2 kcal/mol
2,CAGGACACGTGTGTGG,0.01 kcal/mol
3,AATAGCACGTGAGTTA,0.17 kcal/mol
4,CGATGCACGTGATGTG,0.01 kcal/mol
5,TTAGTCACGTGCTAGG,0.08 kcal/mol
6,TGTGTCACGTGGTTTA,0.11 kcal/mol
7,GTGCCCACGTGTGGTT,0.02 kcal/mol
8,TATTGCACGTGCTGTT,-0.07 kcal/mol
9,GTACTCACGTGGGGAT,0.08 kcal/mol
10,GATATCACGTGGATTG,0.15 kcal/mol
11,AGGGACACGTGTATGA,-0.02 kcal/mol
12,TAGTTCACGTGGATAA,0.11 kcal/mol
13,GAAGACACGTGGAGGG,-0.08 kcal/mol
14,GGCGGCACGTGTAGGT,-0.03 kcal/mol
15,TGGCGCACGTGGTGGC,-0.18 kcal/mol
16,GGTTGCACGTGCGATT,0.01 kcal/mol
17,AATTTCACGTGAGTTT,0.43 kcal/mol
18,GCGTTCACGTGTTAGT,0.22 kcal/mol
19,TATAGCACGTGGATGA,-0.1 kcal/mol
20,GGGAACACGTGAGTAG,0.37 kcal/mol
21,AATGGCACGTGGGATC,-0.12 kcal/mol
22,TAATTCACGTGAATGT,0.35 kcal/mol
23,AAGTGCACGTGTTGTG,-0.14 kcal/mol
24,TTATTCACGTGTGAGC,0.28 kcal/mol
25,GGTAACACGTGGAGCG,0.14 kcal/mol
26,CAAGGCACGTGTTGGG,-0.06 kcal/mol

row,Sequence,relative binding free energy
1,ATGTACACGTGTTTTG,0.05 kcal/mol
2,TTTTGCACGTGAGTTC,0.33 kcal/mol
3,CGGATCACGTGGTGGT,0.11 kcal/mol
4,ATGGGCACGTGTAGGG,-0.07 kcal/mol
5,GCAGGCACGTGTGTGG,0.03 kcal/mol
6,ATATTCACGTGGGGTG,0.09 kcal/mol
7,GATGGCACGTGCGATT,0.18 kcal/mol
8,AAAATCACGTGTAGGG,0.09 kcal/mol
9,TAGTTCACGTGGCTAT,0.29 kcal/mol
10,TATGACACGTGGGAGA,-0.08 kcal/mol
11,TTTTGCACGTGCTAGG,-0.04 kcal/mol
12,ACTTGCACGTGGTGAG,-0.12 kcal/mol
13,CTGGTCACGTGAAAGG,0.24 kcal/mol
14,AGTGGCACGTGTCGGA,-0.03 kcal/mol
15,ATACTCACGTGGGGGC,0.1 kcal/mol
16,AATTGCACGTGGATTG,0.05 kcal/mol
17,TGTTTCACGTGAGGAC,0.28 kcal/mol
18,TGGTGCACGTGGGTTA,-0.15 kcal/mol
19,TGTTTCACGTGAGCGT,0.25 kcal/mol
20,GACTTCACGTGGGGTA,0.19 kcal/mol
21,AATTTCACGTGATTAA,0.17 kcal/mol
22,GATTGCACGTGTAGGG,-0.02 kcal/mol
23,TATATCACGTGATAGA,0.36 kcal/mol
24,GGCAACACGTGTAGGG,0.24 kcal/mol
25,TAATACACGTGTGGTT,0.06 kcal/mol
26,ATCGACACGTGTGTTG,0.04 kcal/mol

row,Sequence,relative binding free energy
1,GGGTTCACGTGGGGTC,0.27 kcal/mol
2,GGTTTCACGTGGAGGG,0.26 kcal/mol
3,ATTAACACGTGTGGGA,0.07 kcal/mol
4,GCTATCACGTGAGGTT,0.24 kcal/mol
5,GTGGGCACGTGTGATT,0 kcal/mol
6,CGAGGCACGTGTCGGG,-0.17 kcal/mol
7,AGGTTCACGTGTTAGC,0.24 kcal/mol
8,ATTGACACGTGGTGTC,-0.18 kcal/mol
9,CATATCACGTGGGGAG,0.04 kcal/mol
10,TAGAGCACGTGGGGCG,-0.21 kcal/mol
11,GATTGCACGTGGGCGT,-0.12 kcal/mol
12,TGGGCCACGTGGGAGG,-0.18 kcal/mol
13,TGCTTCACGTGGCTTT,0.17 kcal/mol
14,AGGGGCACGTGCTAGA,-0.1 kcal/mol
15,CAGGTCACGTGGTGAG,0.07 kcal/mol
16,CGTGACACGTGTAGTA,0.08 kcal/mol
17,TTAAGCACGTGGAAAT,0.04 kcal/mol
18,TTGAGCACGTGCGTTA,-0.07 kcal/mol
19,GGTGCCACGTGGTTCT,0.14 kcal/mol
20,TGAAGCACGTGGTTCG,-0.24 kcal/mol
21,TGCCTCACGTGCTGGG,0.11 kcal/mol
22,TGGCACACGTGCAGTG,0.12 kcal/mol
23,AAAACCACGTGGGGGG,-0.19 kcal/mol
24,ACATGCACGTGGGTAT,-0.17 kcal/mol
25,TTCCTCACGTGGTGGG,0.21 kcal/mol
26,ATAGTCACGTGGTTGG,0.09 kcal/mol

row,Sequence,relative binding free energy
1,ATATCCACGTGGTTGG,0.03 kcal/mol
2,TGTCTCACGTGTTGCG,0.17 kcal/mol
3,GAGCTCACGTGGGTTA,0.15 kcal/mol
4,CGGGTCACGTGGCGGT,0.02 kcal/mol
5,TGTAGCACGTGCGGGC,-0.22 kcal/mol
6,AGGGGCACGTGGCGAC,-0.18 kcal/mol
7,TGTTCCACGTGTGTAT,0.14 kcal/mol
8,CGGTTCACGTGGTGGG,0.22 kcal/mol
9,GTGGGCACGTGATCGT,-0.09 kcal/mol
10,ATTAGCACGTGAGGTC,0.22 kcal/mol
11,CTGTGCACGTGGGGCC,-0.2 kcal/mol
12,AGGTGCACGTGGGACG,-0.11 kcal/mol
13,AAATGCACGTGGGCGA,-0.12 kcal/mol
14,AATAGCACGTGGAGTG,-0.23 kcal/mol
15,CAAGGCACGTGTGTTT,-0.07 kcal/mol
16,GGGAACACGTGGAGTA,0.01 kcal/mol
17,TTAAGCACGTGTATTA,-0.17 kcal/mol
18,AGTGTCACGTGATCGG,0.14 kcal/mol
19,GAGCACACGTGGTGGG,-0.04 kcal/mol
20,AGTGTCACGTGCGCGT,-0.18 kcal/mol
21,ATGAGCACGTGTTAAT,-0.13 kcal/mol
22,ATTGCCACGTGGTTAG,-0.15 kcal/mol
